Molecules are shown by their SMILES. Screen size: about 310,000 compounds; about 2,200 (0.71%) showed an effect of 50% or more. Effects have a minus sign here. This is one part of the list.

human ether-à-go-go-related gene (hERG) potassium channel, sequence (Q12809 whole entry, looked up): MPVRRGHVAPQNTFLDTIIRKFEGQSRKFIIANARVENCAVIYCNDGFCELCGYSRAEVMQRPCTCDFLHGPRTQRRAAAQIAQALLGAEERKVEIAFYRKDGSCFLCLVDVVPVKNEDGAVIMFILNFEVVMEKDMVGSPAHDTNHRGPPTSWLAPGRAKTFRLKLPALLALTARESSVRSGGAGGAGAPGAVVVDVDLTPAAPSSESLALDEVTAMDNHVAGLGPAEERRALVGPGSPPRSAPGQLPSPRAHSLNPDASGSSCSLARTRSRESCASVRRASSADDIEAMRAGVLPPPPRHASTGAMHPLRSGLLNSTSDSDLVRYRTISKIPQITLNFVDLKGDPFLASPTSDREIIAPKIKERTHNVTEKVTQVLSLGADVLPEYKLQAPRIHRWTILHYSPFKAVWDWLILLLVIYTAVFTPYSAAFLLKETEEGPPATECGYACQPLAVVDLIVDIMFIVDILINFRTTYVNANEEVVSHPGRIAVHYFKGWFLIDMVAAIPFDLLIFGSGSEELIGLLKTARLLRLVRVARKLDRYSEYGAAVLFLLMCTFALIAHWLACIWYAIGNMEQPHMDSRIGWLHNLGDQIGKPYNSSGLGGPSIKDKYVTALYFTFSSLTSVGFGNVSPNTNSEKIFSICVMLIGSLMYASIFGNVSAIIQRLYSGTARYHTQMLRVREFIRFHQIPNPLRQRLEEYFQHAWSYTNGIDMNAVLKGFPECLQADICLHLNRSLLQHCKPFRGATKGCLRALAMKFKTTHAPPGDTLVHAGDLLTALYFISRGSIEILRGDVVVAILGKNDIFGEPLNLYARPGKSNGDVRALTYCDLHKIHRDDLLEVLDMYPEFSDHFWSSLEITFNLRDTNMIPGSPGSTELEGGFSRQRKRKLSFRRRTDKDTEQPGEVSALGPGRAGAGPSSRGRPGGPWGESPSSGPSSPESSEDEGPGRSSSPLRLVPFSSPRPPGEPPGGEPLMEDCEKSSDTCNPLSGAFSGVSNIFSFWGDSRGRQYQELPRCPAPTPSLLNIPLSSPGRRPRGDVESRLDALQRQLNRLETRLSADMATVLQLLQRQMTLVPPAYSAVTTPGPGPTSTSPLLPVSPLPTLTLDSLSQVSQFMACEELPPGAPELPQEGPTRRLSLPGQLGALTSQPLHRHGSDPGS

The assay addresses human ether-à-go-go-related gene (hERG) potassium channel (human, UniProt Q12809). The assay is described as follows: primary screen, population patch clamp on CHO cells stably expressing hERG.
As for `O=C(c1cc2cc(Br)ccc2s1)N1CCOCC1`, the “hERG current change (%, negative = inhibition) at 1uM” value is listed as -0.609%. The figure for `Cc1[nH]n(-c2ccccc2)c(=O)c1/C=N/N1C(=O)c2cccc3cccc(c23)C1=O` is 9.42%. For `CC(=O)Nc1ccc(S(=O)(=O)Nn2cnnc2)cc1`, the “hERG current change (%, negative = inhibition) at 1uM” value was 13%.

Consider `COc1ccc(N=Cc2c(O)n(Cc3cccs3)c(=O)[nH]c2=O)cc1`, for which the “hERG current change (%, negative = inhibition) at 1uM” value was -5.69%. As for `CSc1ccc(CN2CCCC(N3CCN(c4ccccc4)CC3)C2)cc1` (stereo not drawn), the “hERG current change (%, negative = inhibition) at 1uM” value is given as -8.99%. As for `O=S(=O)(c1ccccc1)N1CCN(Cc2ccc(Cl)cc2)CC1`, the “hERG current change (%, negative = inhibition) at 1uM” value is recorded as -2.04%.

`CCc1ccccc1NC(=S)N1CCN(c2cccc(OC)c2)CC1`: the “hERG current change (%, negative = inhibition) at 1uM” value is recorded as 11.7%. On to `Cc1nc2cc(NCc3ccccc3O)ccc2n1Cc1ccccc1`, for which the “hERG current change (%, negative = inhibition) at 1uM” value is on record as 7.78%. The figure for `CCOc1ccccc1NC(=O)CCNC(=O)c1ccc(Cl)cc1` is 35.4%; for `C=CCn1c(=O)n2ncnc2c2c3c(sc21)CCCC3` it is -12.9%. `O=S(=O)(c1cc(Cl)ccc1Cl)n1nnc2ccccc21`: the “hERG current change (%, negative = inhibition) at 1uM” value came out at 8.76%. Under `O=C(c1ccc(F)cc1)C1CCN(C(=S)Nc2ccccc2Cl)CC1` stands 11.7%. The figure for `CC(=O)Nc1cccc(NC(=O)CSc2nccn2Cc2ccco2)c1` is 5.74%; for `NC(=O)C1CCCN1S(=O)(=O)c1ccc2ccccc2c1` (stereo not drawn) it is -10.9%. In the case of `O=C(NCCN1CCOCC1)c1csc2c1CCCC2`, the “hERG current change (%, negative = inhibition) at 1uM” value was 2.22%. Turning to `Cc1ccc(-n2nnnc2SCC(=O)NC2CC2)cc1C`, the “hERG current change (%, negative = inhibition) at 1uM” value was -4.87%. As to `CC1CCCCC1NC(=O)c1ccc(S(=O)(=O)NCC2CCCO2)cc1` (stereo not drawn), the “hERG current change (%, negative = inhibition) at 1uM” value stood at 2.62%. `N#Cc1ccc(OCC(=O)N2CCN(S(=O)(=O)c3cccc(Cl)c3)CC2)cc1`: the “hERG current change (%, negative = inhibition) at 1uM” value was -26.9%. The figure for `CN(C)c1ccc(NC(=O)N2CCOCC2)cc1` is 1.64%; for `O=C(CCN1CCN(C/C=C/c2ccccc2)CC1)Nc1ccc(Cl)cc1` it is -74.1%.

On to `Cn1c(=O)c2c(ncn2CC(=O)N2CCCc3ccccc32)n(C)c1=O`, for which the “hERG current change (%, negative = inhibition) at 1uM” value is reported as 6.04%. Consider `CC(C)COC(=O)N(C)c1ccc(C(O)(C(F)(F)F)C(F)(F)F)cc1`, for which the “hERG current change (%, negative = inhibition) at 1uM” value stood at 7.88%. Under `CCOC(=O)c1ccc(NC(=O)COC)cc1` stands -1.6%. Regarding `Cc1ccc(S(=O)(=O)Nc2cccc(-c3ccc(N4CCCCCC4)nn3)c2)c(C)c1`, the “hERG current change (%, negative = inhibition) at 1uM” value amounted to 11.5%. Under `Brc1ccc2[nH]c3c(NCc4ccccn4)ncnc3c2c1` stands 14.6%. The figure for `CCOc1ccccc1NC(=O)CCNS(=O)(=O)c1cccc2nonc12` is 18%; for `CC1(C)CC2(CC(c3ccc(F)cc3)c3ccc(O)cc3O2)NC(=S)N1` (stereo not drawn) it is 9.88%. For the compound `CC(C)CN1CCN(Cc2ccc(C(F)(F)F)cc2)CC1CCO` (stereo not drawn), the “hERG current change (%, negative = inhibition) at 1uM” value is recorded as -30.9%. For the compound `CCOC(=O)Nc1ccc(NCc2ccc(F)cc2)nc1N.O=C([O-])/C=C\C(=O)[O-]`, the “hERG current change (%, negative = inhibition) at 1uM” value came to 1.83%.

In the case of `Cc1ccc(S(=O)(=O)NCCC(=O)Nc2ccc(Cl)c(Cl)c2)cc1C`, the “hERG current change (%, negative = inhibition) at 1uM” value is reported as 15.3%. For `S=C(NCCc1ccccc1)NC1CC2CCC(C1)N2Cc1ccccc1` (stereo not drawn), the “hERG current change (%, negative = inhibition) at 1uM” value is given as 11.6%. Turning to `Cc1[nH]c2ccccc2c1/C=N/NC(=O)CNC(=O)Cc1ccccc1`, the “hERG current change (%, negative = inhibition) at 1uM” value was 9.86%. Under `CCC1Oc2ccc(C)cc2N(CC(=O)NCCN2C(C)CCCC2C)C1=O` (stereo not drawn) stands 5.56%; under `COc1ccc(NC2=NC(=S)N(c3ccc(C)cc3)C23CCCCC3)cc1`, 16.5%; under `COc1ccc(-n2ncc3c(N4CCC(C)CC4)ncnc32)cc1`, 2.56%. Take `CCCCCCn1c(=O)[nH]c2c(c1=O)CCC2`: the “hERG current change (%, negative = inhibition) at 1uM” value is on record as 11.6%. On to `COc1ccc(C2(C)NC(=O)N(CC(=O)Nc3ccc4c(c3)CCC4)C2=O)cc1OC` (stereo not drawn), for which the “hERG current change (%, negative = inhibition) at 1uM” value is listed as 5.38%. Under `CC(CCc1ccco1)NC(=O)CCc1nnc2ccc(NCc3ccc(Cl)cc3)nn12` (stereo not drawn) stands 5.21%. Under `CCCCc1nc2sc3c(c2c(=O)[nH]1)CCC3` stands 11.5%; under `Cc1cc(Nc2cc(C)on2)n2ncnc2n1`, 7.29%; under `CC(C)(C)c1ccc(CSc2nnc(-c3ccccn3)n2Cc2ccco2)cc1`, 0.349%. `Cc1nc(C)c(C(=O)NCCC(c2ccccc2)c2ccccc2)o1`: the “hERG current change (%, negative = inhibition) at 1uM” value worked out at 5.05%. On to `COC(=O)c1c(C(=O)OC)c2cc(C)ccn2c1Cl`, for which the “hERG current change (%, negative = inhibition) at 1uM” value is reported as -5.26%. The figure for `CCOC(=O)C1(Cc2cccc(Cl)c2)CCCN(C(=O)C(C)(C)C)C1` (stereo not drawn) is 13.2%. The figure for `COc1ccc(-c2nc3ncnn3cc2C)cc1F` is 8.83%.

The values above are taken from publication PMC4336329 (PLoS ONE, 2015).
